Source: patent US20210284734A1 (SYMPHOGEN A S, published 2021)

How the values were obtained:
[1] = target: T1, human PD-1 Fc fusion protein (Sino Biological) (human, UniProt Q15116 in part, limits assumed); experiment: BLI, PD-1-Fc saturated with 10 ug/ml antibody, then PD-L1-Fc
T1 construct: bought; not shown: Fc of the commercial fusion protein

[2] = target: T2, human PD-1 expressed on CHO-S cells (human, UniProt Q15116 25-288); experiment: flow cytometry competition, 10 ug/ml antibody vs R-PE PD-L1-Fc on PD-1 CHO-S cells
T2 construct: also called PD-1-expressing cells

[3] = target: T1, human PD-1 Fc fusion protein (Sino …); experiment: BLI, PD-1-Fc saturated with 10 ug/ml antibody, then PD-L2-Fc

% Blocking [1]: 97%
% PD-L1 binding inhibition [2]: 86%
% Blocking [3]: 96%
B1: 12748.13354 (antibody)
chain 1: EVQLLESGGGLVQPGGSLRLSCAASGFTFSDYAMNWVRQAPGKGLEWVAGIGNDGSYTNYGAAVKGRATISRDNSKNTLYLQMNSLRAEDTAVYYCASDIRSRNDCSYFLGGCSSGFIDVWGQGTLVTVSSASTKGPSVFPLAPSSKSTSGGTAALGCLVKDYFPEPVTVSWNSGALTSGVHTFPAVLQSSGLYSLSSVVTVPSSSLGTQTYICNVNHKPSNTKVDKRV[human IgG1 Fc with changes omitted]
chain 2: not shown
